Measurements reported in PMC6400411.
Positions count from the first letter of the chain named. Where two headings read alike, the source gives them in different places. Results are given in words; binding and its absence hold for the method and conditions named. In cells and extracts the contact can be indirect. Some results given as binding are weak or reduced against the parent protein; the word gives no strength. Where a sequence is shown, tags or fusion partners need not be part of it.

Chains of the proteins cited; added tags and fusions are not shown.
UniProt P49841: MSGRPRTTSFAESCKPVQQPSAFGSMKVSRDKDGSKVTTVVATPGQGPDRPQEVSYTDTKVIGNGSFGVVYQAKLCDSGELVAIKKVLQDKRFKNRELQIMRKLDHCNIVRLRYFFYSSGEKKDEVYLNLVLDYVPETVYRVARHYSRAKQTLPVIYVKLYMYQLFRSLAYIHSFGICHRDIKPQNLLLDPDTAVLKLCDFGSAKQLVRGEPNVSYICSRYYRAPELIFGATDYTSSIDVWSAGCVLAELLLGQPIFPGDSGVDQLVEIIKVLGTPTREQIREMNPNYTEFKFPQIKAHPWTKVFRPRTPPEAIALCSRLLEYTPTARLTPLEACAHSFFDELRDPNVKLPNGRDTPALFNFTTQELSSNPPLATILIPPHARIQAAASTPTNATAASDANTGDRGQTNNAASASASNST
UniProt Q969H0: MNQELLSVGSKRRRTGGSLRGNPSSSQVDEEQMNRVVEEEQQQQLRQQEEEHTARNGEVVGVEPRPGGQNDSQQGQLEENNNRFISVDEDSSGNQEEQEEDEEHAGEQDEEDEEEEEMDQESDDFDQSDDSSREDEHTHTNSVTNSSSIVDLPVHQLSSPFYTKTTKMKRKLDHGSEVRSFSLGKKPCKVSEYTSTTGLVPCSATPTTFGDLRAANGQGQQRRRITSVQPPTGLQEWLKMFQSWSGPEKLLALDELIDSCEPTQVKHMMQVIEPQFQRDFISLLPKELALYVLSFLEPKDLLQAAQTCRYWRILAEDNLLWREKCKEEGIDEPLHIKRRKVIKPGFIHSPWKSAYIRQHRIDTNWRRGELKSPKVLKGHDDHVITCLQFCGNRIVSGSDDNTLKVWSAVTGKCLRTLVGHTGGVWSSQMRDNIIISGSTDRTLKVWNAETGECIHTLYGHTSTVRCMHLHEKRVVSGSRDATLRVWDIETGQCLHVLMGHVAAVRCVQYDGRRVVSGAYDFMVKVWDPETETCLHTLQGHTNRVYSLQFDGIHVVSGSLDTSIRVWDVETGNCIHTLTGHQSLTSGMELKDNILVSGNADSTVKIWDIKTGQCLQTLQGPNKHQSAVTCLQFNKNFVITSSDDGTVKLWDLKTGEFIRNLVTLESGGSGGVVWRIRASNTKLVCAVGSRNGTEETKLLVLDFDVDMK
UniProt Q15172: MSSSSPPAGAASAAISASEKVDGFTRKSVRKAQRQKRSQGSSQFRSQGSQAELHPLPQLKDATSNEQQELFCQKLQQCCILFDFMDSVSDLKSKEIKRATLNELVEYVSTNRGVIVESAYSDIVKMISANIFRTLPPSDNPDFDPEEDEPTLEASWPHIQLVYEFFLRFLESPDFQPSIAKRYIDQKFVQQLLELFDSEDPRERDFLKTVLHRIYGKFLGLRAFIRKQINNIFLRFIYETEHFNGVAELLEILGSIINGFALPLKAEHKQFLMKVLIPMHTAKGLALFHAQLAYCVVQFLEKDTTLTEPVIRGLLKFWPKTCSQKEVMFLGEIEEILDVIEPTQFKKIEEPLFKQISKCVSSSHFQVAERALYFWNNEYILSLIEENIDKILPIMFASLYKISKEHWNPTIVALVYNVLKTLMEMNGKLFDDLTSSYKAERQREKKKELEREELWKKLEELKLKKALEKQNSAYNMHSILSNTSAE

What was measured:
[1] = target: T1, Flag-FAAP20 WLR (W40A, L44Q, R45A) (293T cells) (UniProt Q6NZ36); test: co-IP; 293T cells transiently transfected, lysed in NETN150 (1% NP40, 150 mM NaCl, 0.1 mM EDTA, 50 mM Tris pH 7.5) with protease and phosphatase inhibitors; anti-Flag M2 affinity gel 4 h, five washes; WB of HA-tagged or endogenous partner
T1 sequence: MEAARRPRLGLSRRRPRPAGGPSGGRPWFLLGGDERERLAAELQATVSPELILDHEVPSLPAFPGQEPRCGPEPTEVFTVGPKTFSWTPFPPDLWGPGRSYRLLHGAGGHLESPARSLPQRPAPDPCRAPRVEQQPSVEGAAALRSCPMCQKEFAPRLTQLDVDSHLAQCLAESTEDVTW

[2] = target: T2, Flag-FAAP20 WT (293T cells) (UniProt Q6NZ36); test: as above
T2 sequence: T1 sequence with A40W, Q44L, A45R

[3] = target: T3, myc-FAAP20 WT (UniProt Q6NZ36); test: co-IP; 293T cells transiently transfected, lysed in NETN150; anti-c-Myc agarose affinity gel 4 h, five washes; anti-HA WB; where indicated co-expression of PIN1, 50 nM okadaic acid and 10 μM MG132 for 6 h
T3 sequence: T1 sequence with A40W, Q44L, A45R

[4] = target: T4, myc-FAAP20 P49A (UniProt Q6NZ36); test: as above
T4 sequence: T1 sequence with A40W, Q44L, A45R, P49A

[5] = target: T5, Flag-FAAP20 ΔN30 (a.a.1-30 deletion) (UniProt Q6NZ36); test: co-IP; 293T cells transiently transfected, lysed in NETN150 (1% NP40, 150 mM NaCl, 0.1 mM EDTA, 50 mM Tris pH 7.5) with protease and phosphatase inhibitors; anti-Flag M2 affinity gel 4 h, five washes; WB of HA-tagged or endogenous partner
T5 sequence: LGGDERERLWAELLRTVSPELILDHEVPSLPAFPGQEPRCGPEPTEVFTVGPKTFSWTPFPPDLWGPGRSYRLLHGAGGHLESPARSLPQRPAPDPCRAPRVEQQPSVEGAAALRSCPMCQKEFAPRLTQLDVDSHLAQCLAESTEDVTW

[6] = target: T6, Flag-FAAP20 S48A (293T cells) (UniProt Q6NZ36); test: as above
T6 sequence: T1 sequence with A40W, Q44L, A45R, S48A

[7] = target: T7, Flag-FAAP20 P49A (293T cells) (UniProt Q6NZ36); test: as above
T7 sequence: T1 sequence with A40W, Q44L, A45R, P49A

[8] = target: T1, Flag-FAAP20 WLR (W40A, L44Q, R45A) (293T cells); test: as above; remark: listed apart in the source
[9] = target: T2, Flag-FAAP20 WT (293T cells); test: as above; remark: listed apart in the source

Molecule: HA-GSKβ (from UniProt P49841 1-420) (enzyme)
- binding [1]: binds
- binding [2]: binds

Molecule: HA-FBW7 (from UniProt Q969H0 1-707)
- binding [3]: binds
- binding [4]: binds

Molecule: HA-B56α (from UniProt Q15172 1-486)
- binding [1]: binds
- binding [2]: binds

B1: endogenous FANCA (protein, UniProt O15360 1-1455)
chain: MSDSWVPNSASGQDPGGRRRAWAELLAGRVKREKYNPERAQKLKESAVRLLRSHQDLNALLLEVEGPLCKKLSLSKVIDCDSSEAYANHSSSFIGSALQDQASRLGVPVGILSAGMVASSVGQICTAPAETSHPVLLTVEQRKKLSSLLEFAQYLLAHSMFSRLSFCQELWKIQSSLLLEAVWHLHVQGIVSLQELLESHPDMHAVGSWLFRNLCCLCEQMEASCQHADVARAMLSDFVQMFVLRGFQKNSDLRRTVEPEKMPQVTVDVLQRMLIFALDALAAGVQEESSTHKIVRCWFGVFSGHTLGSVISTDPLKRFFSHTLTQILTHSPVLKASDAVQMQREWSFARTHPLLTSLYRRLFVMLSAEELVGHLQEVLETQEVHWQRVLSFVSALVVCFPEAQQLLEDWVARLMAQAFESCQLDSMVTAFLVVRQAALEGPSAFLSYADWFKASFGSTRGYHGCSKKALVFLFTFLSELVPFESPRYLQVHILHPPLVPGKYRSLLTDYISLAKTRLADLKVSIENMGLYEDLSSAGDITEPHSQALQDVEKAIMVFEHTGNIPVTVMEASIFRRPYYVSHFLPALLTPRVLPKVPDSRVAFIESLKRADKIPPSLYSTYCQACSAAEEKPEDAALGVRAEPNSAEEPLGQLTAALGELRASMTDPSQRDVISAQVAVISERLRAVLGHNEDDSSVEISKIQLSINTPRLEPREHMAVDLLLTSFCQNLMAASSVAPPERQGPWAALFVRTMCGRVLPAVLTRLCQLLRHQGPSLSAPHVLGLAALAVHLGESRSALPEVDVGPPAPGAGLPVPALFDSLLTCRTRDSLFFCLKFCTAAISYSLCKFSSQSRDTLCSCLSPGLIKKFQFLMFRLFSEARQPLSEEDVASLSWRPLHLPSADWQRAALSLWTHRTFREVLKEEDVHLTYQDWLHLELEIQPEADALSDTERQDFHQWAIHEHFLPESSASGGCDGDLQAACTILVNALMDFHQSSRSYDHSENSDLVFGGRTGNEDIISRLQEMVADLELQQDLIVPLGHTPSQEHFLFEIFRRRLQALTSGWSVAASLQRQRELLMYKRILLRLPSSVLCGSSFQAEQPITARCEQFFHLVNSEMRNFCSHGGALTQDITAHFFRGLLNACLRSRDPSLMVDFILAKCQTKCPLILTSALVWWPSLEPVLLCRWRRHCQSPLPRELQKLQEGRQFASDFLSPEAASPAPNPDWLSAAALHFAIQQVREENIRKQLKKLDCEREELLVFLFFFSLMGLLSSHLTSNSTTDLPKAFHVCAAILECLEKRKISWLALFQLTESDLRLGRLLLRVAPDQHTRLLPFAFYSLLSYFHEDAAIREEAFLHVAVDMYLKLVQLFVAGDTSTVSPPAGRSLELKGQGNPVELITKARLFLLQLIPRCPKKSFSHVAELLADRGDCDPEVSAALQSRQQAAPDADLSQEPHLF
- binding [5]: binds
- binding [6]: binds
- binding [7]: binds
- binding [8]: no binding
- binding [9]: binds
